The source gives no read counts; variants with many changes may rest on few reads.
B1: LINE1-mini (parent)
chain: GGCAGAGCUCAACACAGCGUGGCAAAGUGGCUGUGGCUAGACUGCC

Variants of: B1
Assay: self-cleavage, relative activity (ratio to wild type); higher = more cleavage; in vitro, sequencing; the parent is a self-cleaving ribozyme

Row | Variant | self-cleavage
1 | A6U A16U G17A C18U G22C | 0.09
2 | A4G G40U C45U | 0.06
3 | A25G G29A G33A | 0.2
4 | G21A G22U C23U C31U C45G | 0.05
5 | G1U A4U U9A C31G C46U | 0.02
6 | U9G A25C C31A C37A | 0.01
7 | G5C C15A C18A G21A G44U | 0.01
8 | A4U A11G C18U U20G | 0
9 | A4U U28A A39C A41C | 0.06
10 | A6U C10U C13G | 0.02
11 | U28G C31G C45G | 0.01
12 | G1C G5U C10G | 0.01
13 | G7A A24C G36A C46U | 0.12
14 | C13G G17U U20G A24C U43C | 0
15 | G1C G17C A41G | 0
16 | A12G G19C G35U A41U U43C C45A | 0
17 | G1A A12G G17U G35C | 0.16
18 | G5C C15U C45A | 0.01
19 | G2U A6G C15U | 0.02
20 | G1A G35U C45U | 0.35
21 | A11G G21U G27U G30C G40A | 0.02
22 | C10A G22U U32A | 0.02
23 | C8A A14U A16G U20C | 0.09
24 | C3U A6G U20G G36A | 0.05

Row | Variant | self-cleavage
25 | G27A U28C A41G | 0.15
26 | A4G G29U A39G | 0.09
27 | G7A C8G U43C | 0.39
28 | G5A G7C A26G | 0.11
29 | A6G C15G A24G G29C G36C | 0.02
30 | C13A G35U G44A | 0.11
31 | G1A C13A C37A A39U | 0.03
32 | A14C U38G G40C C42U | 0.05
33 | A11U C13U G29U | 0.03
34 | G7C A12C A16U | 0.02
35 | A25U G27C U34C A41U | 0.08
36 | C3A A11G C46U | 0.01
37 | A14G U20C A24C A25U C45G | 0.11
38 | C15U G35U A41U | 0.15
39 | G1U C10A C13G | 0.03
40 | A14G G35C C42U | 0.02
41 | G2A G5U C13A G29A G30U C37G | 0.14
42 | A12U C13A C18A G22U | 0.05
43 | C3U G19C A25U A26G A39U | 0.07
44 | G1U C15U C23A A24U A39G | 0.07
45 | A4G G40U G44A | 0.37
46 | A14C A16C A41C | 0.02
47 | G17U G19A C37U | 0.04
48 | G5C C18A G27U | 0.02

Row | Variant | self-cleavage
49 | U9C C18G G22A G35A | 0.03
50 | C3G A4G G17U A26C G36A | 0.13
51 | C3A U28C A41U | 0.11
52 | A6U C8U G22A A25C | 0.08
53 | U9G G22A C45G | 0.04
54 | C10G C15U G17U G36C U43C G44A C46A | 0.01
55 | C8A C18U G21U | 0.3
56 | G5U A26C G29U | 0.04
57 | A4C G33A G40A C45G | 0.09
58 | A12G C18A G30U U32C G35U C37U A41G | 0.01
59 | G2U A4U A6C A12C U28A | 0.02
60 | A6C C13A A14U | 0.16
61 | A6C U9C C18U | 0.03
62 | G2C U9G A11U | 0.01
63 | A12G G17C C23A | 0.01
64 | G2U C10U A14C A26C G27A | 0.01
65 | G5U A16C G40A | 0.07
66 | A4G C13U G17U C37G | 0.11
67 | G7C C13G A24U | 0.05
68 | G2U C10A A41U | 0
69 | C8A C10A G30U G36U | 0.09
70 | G1U C10A A12C A25C G33C | 0.04
71 | G1U G27A A39C | 0.04
72 | U9A A16C C31U | 0.04

Row | Variant | self-cleavage
73 | C10A A12U C13G G30C | 0.04
74 | G1C G7U C13U C31G G40C A41C U43A G44A | 0
75 | C8A G22A C23U | 0.7
76 | G5A C10G U20G U32A | 0.01
77 | C18U G22A C42U | 0.2
78 | C18A G19C U32G | 0.13
79 | C13A A24C A26C G36C C46A | 0.06
80 | C3A G33U G40A | 0.05
81 | A14G G22U A26C G44A | 0.06
82 | A4U G7U A12G | 0.05
83 | C8G U20C A25G G30A A39G | 0.02
84 | G1A G7U C13U G29C | 1.78
85 | C3U C13G G17C C23U A25C U43G C46A | 0.05
86 | U20A A24C A41G | 0.04
87 | G1C G21U C23A G29A C37A | 0.02
88 | C3A A11G C13A G33U U38A | 0.02
89 | G2U A26U G44C | 0.02
90 | U32G C37A U38A | 0.03
91 | U9C G33U C37U U38C | 0.02
92 | C8A U9A A12U A16G A39C | 0.05
93 | C8U G17U C18A G27U | 0.3
94 | G2C G19U G21U | 0.08
95 | C13A U32G C46U | 0.03
96 | U9C G19C G44A | 0.02

Row | Variant | self-cleavage
97 | G2U C10A A11C U28C A39G | 0.01
98 | A12U G22C A24C G40A C42U | 0.01
99 | G5U C15A A41G U43G | 0.09
100 | G27C U38C G40A | 0.02
101 | G5U A6U A11G A25G G27U | 0.02
102 | A6U G22C A39G | 0.15
103 | G1U G30U G36A | 0.04
104 | G19C A24U U43A G44U C45A C46A | 0.1
105 | A12C U20A G30C | 0.01
106 | A4G G5U G35C G40U | 0.06
107 | G2C G30U C42U G44C | 0.02
108 | A6U C18A U32A | 0.06
109 | G2A C10U A14G | 0.07
110 | A14C G21C C37A C42A | 0.03
111 | G1A C15A C18A | 0.07
112 | C10G C13A A16G U28C | 0.01
113 | G5C C10G A12U A25C G29C G35A C46U | 0.01
114 | C3G G35U G40A A41G G44A | 0.11
115 | C3A G7U A14C G33U | 0.11
116 | C10G U20A C31A A41C C42U | 0
117 | C10U C15A G22A G40A G44A | 0.02
118 | A4U C10G G36C G44C | 0.02
119 | A4U C8A G35U | 0.1
120 | A4G G5A C45G | 0.07

Row | Variant | self-cleavage
121 | C23A C31G G33U C46A | 0.03
122 | C10U G19U U28A | 0.27
123 | A4U A16G G21U G29C | 0.18
124 | A4C C8U A16C G29A C45U | 0.06
125 | C8A G22A U28C | 0.08
126 | C13G G30U G40C | 0.02
127 | C3U G17C G19A U43A | 0.16
128 | C18U G22A U34A | 0.02
129 | G1U A6U G22A G44A | 0.04
130 | G17U G19U A26U G30U | 0.06
131 | C3G C13G G29U U34A | 0.04
132 | C3G G30C C37U | 0.52
133 | G19C U20G C42A | 0.06
134 | G5U U9G C18G G22A A24C A41U | 0.02
135 | A6C G19A A24U G29C | 0.66
136 | C13A A14G G21A U34A | 0.05
137 | C13A A25C U32A | 0.13
138 | C3A A11C C13G G33U G44A | 0.03
139 | A6C A16U C18A G22C G29U U34A | 0.02
140 | C10A C15U U43A | 0.01
141 | A4U G17C A25G | 0.13
142 | C15A U28A C31U | 0.04
143 | A11U A26G G35U | 0
144 | G22U U38A C42U | 0.43

Row | Variant | self-cleavage
145 | G29U G33A G40C | 0.06
146 | A6G G19A U28G U38C | 0.21
147 | A11G U20A G33C | 0.02
148 | A16U U28A G30A | 0.1
149 | G2A G7C C15U G22C | 0.41
150 | G1U G35A G36A U38G A39U | 0.1
151 | G29U C45U C46A | 0.62
152 | C13A U20C G27U A41G | 0.04
153 | C13A G30C C37G | 0.02
154 | G19C G21A A24U G40A C45A | 0.05
155 | A6G C23A C31A C37G C46U | 0.03
156 | A4G A24C C31A A39G | 0.05
157 | G7U A39U G40A | 0.12
158 | G5A U20G G35C A39U | 0.03
159 | C3A C31A U43G | 0.11
160 | G2A U9C G27U G30A | 0.11
161 | A12G G40U C42A | 0.01
162 | U20C G33C C46U | 0.04
163 | G5C C23A G29C | 0.02
164 | G7A C15A C23G G27A | 0.14
165 | G7C G17A A25G C37U | 0.05
166 | C3U C8U C15A C18A G33C G36A | 0.05
167 | A16G G22C G29U | 0.07

From the RNAGym collection of RNA variant scans (doi:10.7554/elife.90254)
